# Laboratory results from the supplement of paper PMC8728848.
# The list shows a part of the results.
# Experiments:
# Assay in all cases: glycan array binding signal (z-score within array); higher = stronger binding
# Details in all cases: glycan notation: IUPAC condensed, linker removed
# [1] = molecular target: Fuc(a1-2)Gal6S(b1-3)GlcNAc6S
# In short: (§1)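 Glycan array data came from 3228 arrays in the Consortium for Functional Glycomics database, and only arrays with an available protein sequence were kept. Glycan names were put into IUPAC-condensed notation, and columns mapping to the same glycan were averaged. The binding signal is a within-array Z-score, averaged across arrays of one protein sequence run at different concentrations or buffers and across linkers. A negative Z-score can be read as non-binding.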
# Fuc(a1-2)Gal6S(b1-4)Glc = molecular target: Fuc(a1-2)Gal6S(b1-4)Glc
# In short: as §1
# [2] = molecular target: Fuc(a1-2)Gal6S(b1-4)Glc6S
# In short: as §1
# Fuc(a1-2)[Gal(a1-3)]Gal = molecular target: Fuc(a1-2)[Gal(a1-3)]Gal
# In short: as §1
# [3] = molecular target: Fuc(a1-2)[Gal(a1-3)]Gal(b1-3)GalNAc
# In short: as §1
# [4] = molecular target: Fuc(a1-2)[Gal(a1-3)]Gal(b1-3)GalNAc(b1-3)Gal(a1-4)Gal(b1-4)Glc
# In short: as §1
# [5] = molecular target: Fuc(a1-2)[Gal(a1-3)]Gal(b1-3)GlcNAc
# In short: as §1
# [6] = molecular target: Fuc(a1-2)[Gal(a1-3)]Gal(b1-3)GlcNAc(b1-2)Man(a1-3)[Fuc(a1-2)[Gal(a1-3)]Gal(b1-3)GlcNAc(b1-2)Man(a1-6)]Man(b1-4)GlcNAc(b1-4)GlcNAc
# In short: as §1
# [7] = molecular target: Fuc(a1-2)[Gal(a1-3)]Gal(b1-3)GlcNAc(b1-2)Man(a1-3)[Fuc(a1-2)[Gal(a1-3)]Gal(b1-3)GlcNAc(b1-2)Man(a1-6)]Man(b1-4)GlcNAc(b1-4)[Fuc(a1-6)]GlcNAc
# In short: as §1
# [8] = molecular target: Fuc(a1-2)[Gal(a1-3)]Gal(b1-3)GlcNAc(b1-3)GalNAc
# In short: as §1
# [9] = molecular target: Fuc(a1-2)[Gal(a1-3)]Gal(b1-3)GlcNAc(b1-6)GalNAc
# In short: as §1
# [10] = molecular target: Fuc(a1-2)[Gal(a1-3)]Gal(b1-4)Glc
# In short: as §1
# [11] = molecular target: Fuc(a1-2)[Gal(a1-3)]Gal(b1-4)GlcNAc
# In short: as §1
# [12] = molecular target: Fuc(a1-2)[Gal(a1-3)]Gal(b1-4)GlcNAc(b1-2)Man
# In short: as §1
# [13] = molecular target: Fuc(a1-2)[Gal(a1-3)]Gal(b1-4)GlcNAc(b1-2)Man(a1-3)[Fuc(a1-2)[Gal(a1-3)]Gal(b1-4)GlcNAc(b1-2)Man(a1-6)]Man(b1-4)GlcNAc(b1-4)GlcNAc
# In short: as §1
# [14] = molecular target: Fuc(a1-2)[Gal(a1-3)]Gal(b1-4)GlcNAc(b1-2)Man(a1-3)[Fuc(a1-2)[Gal(a1-3)]Gal(b1-4)GlcNAc(b1-2)Man(a1-6)]Man(b1-4)GlcNAc(b1-4)[Fuc(a1-6)]GlcNAc
# In short: as §1
# [15] = molecular target: Fuc(a1-2)[Gal(a1-3)]Gal(b1-4)GlcNAc(b1-3)GalNAc
# In short: as §1
# [16] = molecular target: Fuc(a1-2)[Gal(a1-3)]Gal(b1-4)GlcNAc(b1-3)[Fuc(a1-2)[Gal(a1-3)]Gal(b1-4)GlcNAc(b1-6)]GalNAc
# In short: as §1
# [17] = molecular target: Fuc(a1-2)[Gal(a1-3)]Gal(b1-4)GlcNAc(b1-6)GalNAc
# In short: as §1
# [18] = molecular target: Fuc(a1-2)[Gal(a1-3)]Gal(b1-4)[Fuc(a1-3)]Glc
# In short: as §1
# [19] = molecular target: Fuc(a1-2)[Gal(a1-3)]Gal(b1-4)[Fuc(a1-3)]GlcNAc
# In short: as §1
# [20] = molecular target: Fuc(a1-2)[Gal(a1-3)]Gal(b1-4)[Fuc(a1-3)]GlcNAc(b1-3)GalNAc
# In short: as §1
# [21] = molecular target: Fuc(a1-2)[Gal(a1-4)]Gal(b1-4)GlcNAc
# In short: as §1
# [22] = molecular target: Fuc(a1-2)[GalNAc(a1-3)]Gal
# In short: as §1
# [23] = molecular target: Fuc(a1-2)[GalNAc(a1-3)]Gal(b1-3)GalNAc(a1-3)[Fuc(a1-2)]Gal(b1-4)GlcNAc
# In short: as §1
# [24] = molecular target: Fuc(a1-2)[GalNAc(a1-3)]Gal(b1-3)GalNAc(b1-3)Gal(a1-4)Gal(b1-4)Glc
# In short: as §1
# [25] = molecular target: Fuc(a1-2)[GalNAc(a1-3)]Gal(b1-3)GlcNAc
# In short: as §1
# [26] = molecular target: Fuc(a1-2)[GalNAc(a1-3)]Gal(b1-3)GlcNAc(b1-2)Man(a1-3)[Fuc(a1-2)[GalNAc(a1-3)]Gal(b1-3)GlcNAc(b1-2)Man(a1-6)]Man(b1-4)GlcNAc(b1-4)GlcNAc
# In short: as §1
# [27] = molecular target: Fuc(a1-2)[GalNAc(a1-3)]Gal(b1-3)GlcNAc(b1-2)Man(a1-3)[Fuc(a1-2)[GalNAc(a1-3)]Gal(b1-3)GlcNAc(b1-2)Man(a1-6)]Man(b1-4)GlcNAc(b1-4)[Fuc(a1-6)]GlcNAc
# In short: as §1
# [28] = molecular target: Fuc(a1-2)[GalNAc(a1-3)]Gal(b1-3)GlcNAc(b1-3)GalNAc
# In short: as §1
# [29] = molecular target: Fuc(a1-2)[GalNAc(a1-3)]Gal(b1-3)GlcNAc(b1-6)GalNAc
# In short: as §1
# [30] = molecular target: Fuc(a1-2)[GalNAc(a1-3)]Gal(b1-4)Glc
# In short: as §1
# [31] = molecular target: Fuc(a1-2)[GalNAc(a1-3)]Gal(b1-4)GlcNAc
# In short: as §1
# [32] = molecular target: Fuc(a1-2)[GalNAc(a1-3)]Gal(b1-4)GlcNAc(b1-2)Man
# In short: as §1
# [33] = molecular target: Fuc(a1-2)[GalNAc(a1-3)]Gal(b1-4)GlcNAc(b1-2)Man(a1-3)[Fuc(a1-2)[GalNAc(a1-3)]Gal(b1-4)GlcNAc(b1-2)Man(a1-6)]Man(b1-4)GlcNAc(b1-4)GlcNAc
# In short: as §1
# [34] = molecular target: Fuc(a1-2)[GalNAc(a1-3)]Gal(b1-4)GlcNAc(b1-2)Man(a1-3)[Fuc(a1-2)[GalNAc(a1-3)]Gal(b1-4)GlcNAc(b1-2)Man(a1-6)]Man(b1-4)GlcNAc(b1-4)[Fuc(a1-6)]GlcNAc
# In short: as §1
# [35] = molecular target: Fuc(a1-2)[GalNAc(a1-3)]Gal(b1-4)GlcNAc(b1-3)Gal(b1-4)GlcNAc
# In short: as §1
# [36] = molecular target: Fuc(a1-2)[GalNAc(a1-3)]Gal(b1-4)GlcNAc(b1-3)Gal(b1-4)GlcNAc(b1-3)Gal(b1-4)GlcNAc
# In short: as §1
# [37] = molecular target: Fuc(a1-2)[GalNAc(a1-3)]Gal(b1-4)GlcNAc(b1-3)GalNAc
# In short: as §1
# [38] = molecular target: Fuc(a1-2)[GalNAc(a1-3)]Gal(b1-4)GlcNAc(b1-3)[Fuc(a1-2)[GalNAc(a1-3)]Gal(b1-4)GlcNAc(b1-6)]GalNAc
# In short: as §1
# [39] = molecular target: Fuc(a1-2)[GalNAc(a1-3)]Gal(b1-4)GlcNAc(b1-6)GalNAc
# In short: as §1
# [40] = molecular target: Fuc(a1-2)[GalNAc(a1-3)]Gal(b1-4)[Fuc(a1-3)]GlcNAc
# In short: as §1
# [41] = molecular target: Fuc(a1-2)[GalNAc(a1-3)]Gal(b1-4)[Fuc(a1-3)]GlcNAc(b1-3)GalNAc
# In short: as §1
# [42] = molecular target: Fuc(a1-2)[GalNAc(a1-4)]Gal(b1-4)GlcNAc
# In short: as §1
# [43] = molecular target: Fuc(a1-2)[GalNAc(b1-3)]Gal
# In short: as §1
binder,measurement,setting,value
PX14375F-bfa-539-21-539 (Bacteroides fragilis) (protein) EDFLQKDPPSSPSQSVFWQKKSDFESALAGTYSVMYSGVFSQIMPCLDGLTDNAIVQHSEGTYGWAKTIAQGDLTPNQGGFVTDIYGNCYKGIARVHILMEQLDQYTGSDISADEKKFMLAQCKALRGYFYSWLYQCYKEVPVVTQSLDLNTMYQPKATRAEVLNRVMTDYDEAISELPDKLYSDSQTSGRFTVSAVKALKARILLFDAYDSNGKAISSKMEEVLTLLQSIKGYSLAARVRDNFISEKQLASPEIMFSVRFLRPNLTHSMDLYYGAWAVLDPTRNMVDAFECTDGKPWGESPLTVRPDESILYGNDDALKKAERAKMFMNRDRRLYESVNHSMMANFVDDGFKDEEVQVNESNNKGPTGFSALKYVQPTDVTPGYSTVSDADIVVLRYAHVLLMIAEAENEAHGATTTALNAINEVRTRSGQPAIEAGISQDDLRERIRNEWRIETCFEGLRYFQLKRWKLMDKRVNGVEDPAYPGYIKVYKPAFEFFPIPQSEIDKAGGVLKQDPAYE,glycan array binding signal (z-score),[1],0.375
same,glycan array binding signal (z-score),Fuc(a1-2)Gal6S(b1-4)Glc,0.29
same,glycan array binding signal (z-score),[2],0.071
same,glycan array binding signal (z-score),Fuc(a1-2)[Gal(a1-3)]Gal,0.615
same,glycan array binding signal (z-score),[3],-0.04
same,glycan array binding signal (z-score),[4],0.042
same,glycan array binding signal (z-score),[5],-0.642
same,glycan array binding signal (z-score),[6],-0.142
same,glycan array binding signal (z-score),[7],-0.346
same,glycan array binding signal (z-score),[8],-0.834
same,glycan array binding signal (z-score),[9],-0.329
same,glycan array binding signal (z-score),[10],-0.355
same,glycan array binding signal (z-score),[11],-0.7
same,glycan array binding signal (z-score),[12],-0.35
same,glycan array binding signal (z-score),[13],6.22
same,glycan array binding signal (z-score),[14],0.409
same,glycan array binding signal (z-score),[15],-0.141
same,glycan array binding signal (z-score),[16],-0.101
same,glycan array binding signal (z-score),[17],-0.683
same,glycan array binding signal (z-score),[18],-0.207
same,glycan array binding signal (z-score),[19],-0.185
same,glycan array binding signal (z-score),[20],1.2
same,glycan array binding signal (z-score),[21],2.7
same,glycan array binding signal (z-score),[22],-0.451
same,glycan array binding signal (z-score),[23],-0.658
same,glycan array binding signal (z-score),[24],-0.41
same,glycan array binding signal (z-score),[25],-0.815
same,glycan array binding signal (z-score),[26],-0.023
same,glycan array binding signal (z-score),[27],-0.461
same,glycan array binding signal (z-score),[28],0.51
same,glycan array binding signal (z-score),[29],-0.063
same,glycan array binding signal (z-score),[30],-1
same,glycan array binding signal (z-score),[31],-0.6
same,glycan array binding signal (z-score),[32],-0.532
same,glycan array binding signal (z-score),[33],1.13
same,glycan array binding signal (z-score),[34],0.57
same,glycan array binding signal (z-score),[35],0.593
same,glycan array binding signal (z-score),[36],-0.295
same,glycan array binding signal (z-score),[37],-0.049
same,glycan array binding signal (z-score),[38],0.17
same,glycan array binding signal (z-score),[39],-0.169
same,glycan array binding signal (z-score),[40],-0.062
same,glycan array binding signal (z-score),[41],-0.296
same,glycan array binding signal (z-score),[42],0.27
same,glycan array binding signal (z-score),[43],0.483
